Results are given in words; binding and its absence hold for the method and conditions named. In cells and extracts the contact can be indirect. Some results given as binding are weak or reduced against the parent protein; the word gives no strength. For some assays here: Sequences can lack the tags named with a protein. Blank lines part the entries; values can stand above or below the substance they belong to.
How the values were obtained:
[1] = biological target: T1, GST-hADAM10(697–748) (human) (UniProt O14672); experiment: pull-down; 10 µg GST or GST-hADAM10(697–748); lysate of Jurkat cells (JE6-1), 900 µg/ml protein; blot with polyclonal anti-Grb2; only the target purified
T1 sequence: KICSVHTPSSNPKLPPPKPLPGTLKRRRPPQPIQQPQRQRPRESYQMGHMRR

Protein sequences, listed by entry. Tags and fused reporters are not part of them. Lines headed by an entry give the natural chain unless they say otherwise; changes in a name come on top. Residues count along the entry.
UniProt P78536, residues 694-824: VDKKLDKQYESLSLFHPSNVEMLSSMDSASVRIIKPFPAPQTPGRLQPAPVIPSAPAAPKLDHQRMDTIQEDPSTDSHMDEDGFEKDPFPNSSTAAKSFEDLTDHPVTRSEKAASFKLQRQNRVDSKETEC
GST-coupled SH3 domain of Hck (P08631, residues 78-138): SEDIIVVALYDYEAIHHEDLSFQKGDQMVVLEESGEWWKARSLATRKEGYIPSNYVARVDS
GST fusion protein with the SH2 domain of Hck (P08631, residues 144-241): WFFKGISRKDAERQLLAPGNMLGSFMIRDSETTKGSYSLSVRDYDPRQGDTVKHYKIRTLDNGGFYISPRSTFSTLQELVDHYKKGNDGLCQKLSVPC
UniProt P06239: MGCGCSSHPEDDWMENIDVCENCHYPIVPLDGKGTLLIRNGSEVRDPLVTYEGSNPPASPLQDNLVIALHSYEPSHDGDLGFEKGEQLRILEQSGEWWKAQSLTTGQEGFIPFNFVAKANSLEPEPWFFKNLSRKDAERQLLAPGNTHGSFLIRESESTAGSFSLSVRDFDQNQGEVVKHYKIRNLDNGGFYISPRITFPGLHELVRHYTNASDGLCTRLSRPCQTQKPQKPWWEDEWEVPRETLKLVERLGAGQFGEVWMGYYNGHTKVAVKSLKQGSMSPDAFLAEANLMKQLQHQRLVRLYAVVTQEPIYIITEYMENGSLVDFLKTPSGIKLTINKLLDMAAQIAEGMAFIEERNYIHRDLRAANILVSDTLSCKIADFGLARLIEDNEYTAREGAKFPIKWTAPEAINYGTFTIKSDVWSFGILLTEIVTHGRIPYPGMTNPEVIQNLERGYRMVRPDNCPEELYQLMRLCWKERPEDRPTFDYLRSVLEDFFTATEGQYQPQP
GST-coupled SH3 domain of Lck: residues 61-121 of P06239
UniProt Q9UNF0: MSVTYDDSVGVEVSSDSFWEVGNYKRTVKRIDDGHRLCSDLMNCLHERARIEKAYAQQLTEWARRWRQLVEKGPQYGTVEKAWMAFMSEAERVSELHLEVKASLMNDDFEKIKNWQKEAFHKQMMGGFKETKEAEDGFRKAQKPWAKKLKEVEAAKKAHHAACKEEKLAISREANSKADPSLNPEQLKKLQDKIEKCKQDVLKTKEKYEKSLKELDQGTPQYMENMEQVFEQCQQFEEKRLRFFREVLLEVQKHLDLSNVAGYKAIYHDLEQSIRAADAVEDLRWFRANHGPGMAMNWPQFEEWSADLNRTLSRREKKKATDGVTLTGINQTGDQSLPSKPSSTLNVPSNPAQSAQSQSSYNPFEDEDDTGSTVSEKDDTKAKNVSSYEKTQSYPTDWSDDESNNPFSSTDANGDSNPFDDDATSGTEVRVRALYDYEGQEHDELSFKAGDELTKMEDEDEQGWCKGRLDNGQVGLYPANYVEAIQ
GST fusion protein with the SH3 domain of PACSIN2: residues 426-486 of Q9UNF0
GST-coupled SH3 domain of Yes (P07947, residues 91-152): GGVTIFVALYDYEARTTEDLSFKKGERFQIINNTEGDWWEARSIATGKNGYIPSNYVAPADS
GST fusion protein with the SH2 domain of Yes (P07947, residues 158-255): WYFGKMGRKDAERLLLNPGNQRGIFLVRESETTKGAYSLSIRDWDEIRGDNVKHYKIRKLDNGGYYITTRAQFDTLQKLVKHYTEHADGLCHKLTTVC
GST-coupled SH3 domain of Fyn (P06241, residues 82-143): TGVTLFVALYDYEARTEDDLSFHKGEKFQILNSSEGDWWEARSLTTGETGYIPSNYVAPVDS
GST fusion protein with the SH2 domain of Fyn (P06241, residues 149-246): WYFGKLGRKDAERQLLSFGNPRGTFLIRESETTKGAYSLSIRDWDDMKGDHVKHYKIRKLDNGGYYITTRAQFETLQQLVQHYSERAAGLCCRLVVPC
UniProt Q9BY11: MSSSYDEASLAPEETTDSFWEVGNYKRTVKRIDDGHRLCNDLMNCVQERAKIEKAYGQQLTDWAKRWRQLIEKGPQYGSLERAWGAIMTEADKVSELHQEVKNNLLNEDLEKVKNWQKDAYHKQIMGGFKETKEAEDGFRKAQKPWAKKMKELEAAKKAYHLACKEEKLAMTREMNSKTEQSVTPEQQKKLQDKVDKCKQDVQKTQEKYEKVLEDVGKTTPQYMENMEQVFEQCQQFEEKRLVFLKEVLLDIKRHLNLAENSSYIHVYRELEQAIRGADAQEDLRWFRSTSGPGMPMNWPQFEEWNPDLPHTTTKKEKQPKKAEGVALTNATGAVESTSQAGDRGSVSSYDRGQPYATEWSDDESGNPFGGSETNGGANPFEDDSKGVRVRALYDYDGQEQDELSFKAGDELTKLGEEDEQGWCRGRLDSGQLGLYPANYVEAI
GST fusion protein with the SH3 domain of PACSIN1: residues 385-444 of Q9BY11
GST-coupled SH3 domain of Abl (P00519, residues 61-121): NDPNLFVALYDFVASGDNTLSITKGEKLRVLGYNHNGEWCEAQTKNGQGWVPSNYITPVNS
GST fusion protein with the SH2 domain of Abl (P00519, residues 127-217): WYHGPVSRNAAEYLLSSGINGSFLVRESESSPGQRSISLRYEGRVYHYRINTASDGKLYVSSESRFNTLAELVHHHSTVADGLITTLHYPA
UniProt P62993: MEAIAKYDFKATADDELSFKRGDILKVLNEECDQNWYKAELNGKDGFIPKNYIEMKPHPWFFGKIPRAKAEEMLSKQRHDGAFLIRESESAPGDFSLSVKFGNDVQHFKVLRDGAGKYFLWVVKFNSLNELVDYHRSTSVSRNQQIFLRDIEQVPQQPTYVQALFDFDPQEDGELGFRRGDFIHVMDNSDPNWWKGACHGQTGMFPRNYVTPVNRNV
UniProt Q9Y5X1: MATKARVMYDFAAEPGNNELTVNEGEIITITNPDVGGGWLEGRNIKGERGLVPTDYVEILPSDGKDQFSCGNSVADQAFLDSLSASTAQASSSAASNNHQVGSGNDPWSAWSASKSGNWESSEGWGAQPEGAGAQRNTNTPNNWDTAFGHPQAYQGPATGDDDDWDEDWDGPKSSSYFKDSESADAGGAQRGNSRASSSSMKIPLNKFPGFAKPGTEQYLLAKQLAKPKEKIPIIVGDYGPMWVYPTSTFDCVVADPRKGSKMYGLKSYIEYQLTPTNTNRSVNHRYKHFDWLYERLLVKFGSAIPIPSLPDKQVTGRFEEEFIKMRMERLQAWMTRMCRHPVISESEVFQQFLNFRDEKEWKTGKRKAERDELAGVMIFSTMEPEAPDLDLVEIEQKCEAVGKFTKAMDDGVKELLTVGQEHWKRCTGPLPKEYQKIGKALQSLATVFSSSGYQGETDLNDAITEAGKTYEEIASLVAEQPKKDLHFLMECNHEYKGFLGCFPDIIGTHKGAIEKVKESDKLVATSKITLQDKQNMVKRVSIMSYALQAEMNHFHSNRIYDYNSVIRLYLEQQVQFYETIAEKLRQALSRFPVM

[2] = biological target: GST-hADAM17(694–824) (human) (UniProt P78536); experiment: pull-down; 10 or 25 µg of GST, GST-hADAM10(697–748) or GST-hADAM17(694–824); lysates of HEK 293T cells transfected with HA-tagged sorting nexins or myc-tagged PACSINs; blots against the HA- or myc-tag; only the target purified
[3] = biological target: T1, GST-hADAM10(697–748) (human); experiment: as above
[4] = biological target: GST fusion protein with the SH2 domain of Hck (UniProt P08631); experiment: pull-down; 10-15 µg GST fusion proteins (SH3 or SH2 domains) or GST on glutathione sepharose; lysates of Jurkat T cells (JFL); blot with anti-ADAM10 mAb 11G2; only the target purified
[5] = biological target: GST-coupled SH3 domain of Lck (human) (UniProt P06239); experiment: as above
[6] = biological target: GST fusion protein with the SH3 domain of PACSIN2 (UniProt Q9UNF0); experiment: as above
[7] = biological target: GST-coupled SH3 domain of Yes (UniProt P07947); experiment: as above
[8] = biological target: GST fusion protein with the SH2 domain of Fyn (UniProt P06241); experiment: as above
[9] = biological target: GST fusion protein with the SH3 domain of PACSIN1 (UniProt Q9BY11); experiment: as above
[10] = biological target: GST-coupled SH3 domain of Abl (human) (UniProt P00519); experiment: as above
[11] = biological target: GST fusion protein with the SH2 domain of Yes (UniProt P07947); experiment: as above
[12] = biological target: GST-coupled SH3 domain of Fyn (UniProt P06241); experiment: as above
[13] = biological target: GST fusion protein with the SH2 domain of Abl (human) (UniProt P00519); experiment: as above
[14] = biological target: GST-coupled SH3 domain of Hck (UniProt P08631); experiment: as above
[15] = biological target: GST-coupled SH3 domain of Lck (human) (UniProt P06239); experiment: pull-down; as Fig. 3A (GST-Lck SH3, JFL lysate, mAb 11G2), longer exposure times; data not shown; only the target purified
[16] = biological target: Lck (endogenous) (human (endogenous in Jurkat)) (UniProt P06239); experiment: co-IP; endogenous proteins, Jurkat T cells (JE6-1); 2 µg of mAbs against Lck (4/129, 4/215) or ADAM10 (11G2) with Protein G beads; blots with mAb 11G2 or anti-Grb2 (C-23)

binding [1]: binds
Substance: Grb2 (endogenous) (from UniProt P62993 1-217)

binding [2]: binds
binding [3]: binds
Substance: HA-tagged SNX9 (from UniProt Q9Y5X1 1-595)

binding [4]: no binding (tested: 10 µg)
binding [5]: binds weakly
binding [6]: binds
binding [7]: binds
binding [8]: no binding (tested: 10 µg)
binding [9]: binds
binding [10]: binds
binding [11]: no binding (tested: 10 µg)
binding [12]: binds
binding [13]: no binding (tested: 10 µg)
binding [14]: binds
binding [15]: binds
binding [16]: binds
Substance: mature ADAM10 (endogenous) (from UniProt O14672 214-748)

binding [2]: binds
binding [3]: binds
Substance: myc-tagged PACSIN1 (from UniProt Q9BY11 1-444)

binding [2]: binds
binding [3]: binds
Substance: myc-tagged PACSIN2 (from UniProt Q9UNF0 1-486)
